PubChem BioAssay AID588342 (National Center for Advancing Translational Sciences (NCATS), 2011)
Screen size: about 360,000 compounds; about 25,000 (6.9%) were called active. Inconclusive means that the source gave no clear call. Such entries were picked first, then a sample of the others. Calls follow the shape of the dose curve; as a rule, active = well fitted inhibition curve with a large enough effect; inconclusive = small, poorly fitted or top-dose-only effect; inactive = flat fitted curve, though single readings scatter. A potency beside an inconclusive call is a rough fit, not a confirmed value.

biological target: Luciferin 4-monooxygenase (Photinus pyralis) (UniProt P08659); experiment: qHTS profiling assay for firefly luciferase inhibitor/activator using purifed enzyme and Km concentrations of substrates (counterscreen for miR-21 project); conditions: purified FLuc, luminescence inhibition; series mostly up to 57.5 µM; also: nearly all actives have a fitted effect of over 55% in size
UniProt P08659, sequence (P08659 whole entry, looked up): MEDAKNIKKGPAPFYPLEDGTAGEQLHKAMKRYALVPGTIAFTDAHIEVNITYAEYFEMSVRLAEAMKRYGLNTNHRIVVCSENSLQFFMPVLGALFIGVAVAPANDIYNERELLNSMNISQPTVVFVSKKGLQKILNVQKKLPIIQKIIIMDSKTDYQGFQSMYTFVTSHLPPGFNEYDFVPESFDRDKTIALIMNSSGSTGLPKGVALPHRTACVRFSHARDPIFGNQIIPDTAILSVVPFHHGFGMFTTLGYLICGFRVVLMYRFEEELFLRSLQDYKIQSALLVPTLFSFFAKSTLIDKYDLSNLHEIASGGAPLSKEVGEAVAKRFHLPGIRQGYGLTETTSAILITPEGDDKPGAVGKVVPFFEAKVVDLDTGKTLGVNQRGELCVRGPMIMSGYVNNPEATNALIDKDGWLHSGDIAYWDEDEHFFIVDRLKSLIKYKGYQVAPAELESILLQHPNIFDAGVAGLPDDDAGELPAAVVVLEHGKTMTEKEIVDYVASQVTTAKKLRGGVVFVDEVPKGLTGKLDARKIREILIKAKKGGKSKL
Outline: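 Purified P. pyralis luciferase (10nM final) with 10uM D-luciferin and 10uM ATP (Km levels) in 50mM Tris acetate pH 7.5, 10mM Mg acetate, 0.01% Tween-20, 0.05% BSA; qHTS 6-point titration, ~60 µM downward; luminescence read.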
Potency is read from the fitted curve at half-maximal effect; tags tell the direction and shape of the fitted curve.

Row | Compound | Potency
1 | CCN(CC)CCNC(=O)c1cn(CCOC)c(=O)c2c1c1ccccc1n2C | inactive
2 | Cc1ccc(NC(=S)NC2CCCC2)cc1C | inconclusive: 37.9 µM [inhibitor, single point]
3 | Cc1nnc(NC(=O)CSc2nccn2Cc2ccc(Cl)cc2)s1 | inconclusive: 30.1 µM [inhibitor, partial curve, poor fit]
4 | COc1ccc(NC(=O)CN2CCCCC2)cc1 | inconclusive: 21.3 µM [inhibitor, partial curve, poor fit]
5 | COc1ccc(NC(=O)COC(=O)CN2C(=O)c3ccccc3C2=O)cc1 | inactive
6 | Oc1cccc(N2Cc3ccccc3C2)c1 | inconclusive: 21.3 µM [inhibitor, partial curve, poor fit]
7 | O=C(O)[C@@H]1CCCN(S(=O)(=O)c2cccc3cccnc23)C1 | inactive
8 | O=C1NN(c2cccc(Br)c2)C(=O)/C1=C/c1ccc(-c2cc([N+](=O)[O-])ccc2O)o1 | inconclusive: 19 µM [inhibitor, partial curve]
9 | CN(C(=O)CSc1nnc(Nc2ccccc2)s1)C1CCS(=O)(=O)C1 (stereo unspecified) | active: 16.9 µM
10 | O=C(COC(=O)CNC(=O)c1ccccc1)NC1CCCC1 | inactive
11 | CCc1sc(C(=O)Nc2ccccc2N2CCOCC2)cc1C | inconclusive: 30.1 µM [inhibitor, single point]
12 | COc1ccc(CNC(=O)CCSCc2cccc(F)c2)cc1 | inactive
13 | Cc1ccccc1NC(=O)CC1(c2ccc(N(C)C)cc2)C(=O)c2ccccc2C1=O | inactive
14 | COc1cc(Cl)c(C)cc1NC(=O)Cn1ncc2c1-c1cc(C)ccc1OC2 | inactive
15 | CCCCSc1nnc(-c2ccccc2NC(C)=O)c(=O)[nH]1 | inactive
16 | CCN(CC)c1ccc(C(=O)NNC(=O)CNC(=O)c2cccs2)cc1 | inconclusive: 26.9 µM [inhibitor, single point]
17 | O=C1C(Cl)=C(NCCN2CCOCC2)C(=O)c2ccccc21 | inactive
18 | Cc1ccc(/C=N/NC(=O)c2cc3ccccc3cc2O)o1 | active: 9.53 µM
19 | Cc1cc(C)c2c(N)c(C(=O)c3ccccc3)sc2n1 | inconclusive: 26.9 µM [inhibitor, single point]
20 | COc1ccc(-c2c(C)nn3c(C(F)(F)F)cc(-c4ccccc4)nc23)cc1 | inactive
21 | CC(C)(C)n1ncc2c(=O)n(Cc3ccccc3Br)cnc21 | inconclusive: 12 µM [inhibitor, single point]
22 | Fc1cccc(CSc2nc3ncccc3[nH]2)c1 | inconclusive: 19 µM [inhibitor, single point]
23 | Cc1cc(C)cc(NC(=O)Cc2c(C(=O)O)c(C)cn2C)c1 | inconclusive: 21.3 µM [inhibitor, partial curve, poor fit]
24 | O=C(Cn1cc(SCc2ccccc2F)c2ccccc21)N1CCCCC1 | inconclusive: 13.5 µM [inhibitor, partial curve]
25 | CCc1ccccc1NC(=O)C(Cc1ccccc1)c1nn[nH]n1 (stereo unspecified) | inactive
26 | COC(=O)c1c(NC(=O)CN(C)CC(=O)Nc2ccc(C)cc2)sc2c1CCC(C)C2 (stereo unspecified) | inactive

Row | Compound | Potency
27 | O=C(CSCc1ccc(Cl)cc1)c1ccco1 | active: 15.1 µM
28 | CCCNC(=O)Nc1nc2ccccc2s1 | active: 9.53 µM
29 | COc1ccc(C(=O)NCc2ccc3c(c2)CCN3C(=O)c2ccc(C)cc2)cc1 | inconclusive: 37.9 µM [inhibitor, single point]
30 | COc1c(OC)c(O)c2c(=O)cc(-c3c(O)cccc3O)oc2c1OC | inconclusive: 37.9 µM [inhibitor, single point]
31 | COc1cccc(/C=N/n2c(N)nc3ccccc32)c1OC | active: 12 µM
32 | O=[N+]([O-])c1ccc(NC(=S)N2CCc3ccccc32)cc1 | inconclusive: 21.3 µM [inhibitor, single point]
33 | Cc1ccc(S(=O)(=O)N2CCN(CC(=O)N3CCOCC3)CC2)cc1 | inactive
34 | COC(=O)N/N=C(\C)c1ccc(OC(F)F)cc1 | inconclusive: 30.1 µM [inhibitor, partial curve, poor fit]
35 | O=C(CCCOc1ccc(Cl)cc1Cl)Nc1ccccn1 | active: 16.9 µM
36 | COCCNC(=O)c1ccc2c(c1)ncn2-c1cccc(C)c1 | inconclusive: 26.9 µM [inhibitor, single point]
37 | COc1ccc(NC(=O)c2nc3nccc(C)n3n2)cn1 | inconclusive: 23.9 µM [inhibitor, partial curve]
38 | CC1(C)CC(c2nc(-c3ccc(Cl)cc3)cs2)CCS1 (stereo unspecified) | inconclusive: 23.9 µM [inhibitor, partial curve, poor fit]
39 | CC1CCn2c(nc3cc(C(=O)NCc4ccc(OC(C)C)cc4)ccc32)C1 (stereo unspecified) | inconclusive: 37.9 µM [inhibitor, single point]
40 | N=c1oc2ccccc2cc1C(=O)Nc1cccc(F)c1 | active: 0.301 µM
41 | CCC(C(=O)NC1CCC(C)CC1)n1nc(C)c2sc3ccccc3c2c1=O (stereo unspecified) | inconclusive: 21.3 µM [inhibitor, single point]
42 | Cc1ccc(-n2cc(C(C)(C)C)[nH]c2=S)cc1 | inconclusive: 21.3 µM [inhibitor, single point]
43 | Cc1cc(N=Nc2ccccc2)c(NCC(O)C(O)C(O)CO)cc1C (stereo unspecified) | inconclusive: 37.9 µM [inhibitor, single point]
44 | COc1cc(/C=N/N(C)C)ccc1OC(=O)c1cccs1 | active: 26.9 µM
45 | CCCC(=O)N(Cc1cc(=O)[nH]c2ccccc12)c1cccc(C)c1 | inactive
46 | O/C(=C\c1nc2ccccc2[nH]1)c1cccs1 | active: 13.5 µM
47 | Cc1cc(-c2ccc(S(=O)(=O)N3CCN(c4ccc(Cl)cc4)CC3)s2)on1 | inactive
48 | O=C(Nc1ccccc1O)c1ccc2c(c1)C(=O)N(Cc1ccco1)C2=O | inactive
49 | Cc1nc2c3cnn(-c4ccccc4)c3ncn2n1 | inconclusive: 13.5 µM [inhibitor, partial curve, poor fit]
50 | COc1ccccc1N1CCN(/N=C/C=C\c2ccco2)CC1 | active: 4.78 µM
51 | CCCCn1c(SCC(=O)NCc2cccs2)nc2c1c(=O)n(C)c(=O)n2C | inactive
